Among the data in article PMC12136788 are binding signal values, retold here.

The labels stand for the following.
B1: chr7:10978501:10978502:-_ENSG00000189043_ENST00000339600|hu_mus|FALSE|FALSE (ssRNA)
RNA: GGGAGUUCUACAGUCCGACGAUCAUUAAACAGUGCCAAGCGCAUCACAUACAGUGCUGCUCCAGUACCCCCUGCUCCAAUAAAUACGAAGAGAGGAAUCAAGCUGGGAUGCUUCUUGGCUUGCCCGAGGAUCUGGCGGAGCAUCAACAGAGGAUUGAGCAUCA
B2: chr4:25749455:25749456:-_ENSG00000091490_ENST00000264868|hu_hu|hu_hu_hu_mus_False|18_28 (ssRNA)
RNA: GGGAGUUCUACAGUCCGACGAUCGCACUAUGACCUCUAGAAAAAUCCACAGGGGGAAAAAAUGUAAACCAAUGUACAAUGUUAUCGCCUUCCCUGUGUGUGGAGUGACAAACAAUUUAUUUCAAGGAGCUGCUGGAUUUGGGACAACAGAGGAUUGAGCAUCA
B3: chr1:163112212:163112213:-_ENSG00000143248_ENST00000313961|hu_hu|hu_hu_hu_mus_False|1_8 (ssRNA)
RNA: GGGAGUUCUACAGUCCGACGAUCUUUUAUUAUCAGUAAGAGUGAGUUACAUACUAGGCAAAGUAUUGGAUACAAUAAUCAGGAAACAAACACUAUUGGUCCAGAAUUUAAAACUUUAUGAGCGAAGGCUUACAAAUGGAUUUACAACAGAGGAUUGAGCAUCA
B4: chr14:22612544:22612545:+_ENSMUSG00000021770_ENSMUST00000119430|mus_mus|FALSE|FALSE (ssRNA)
RNA: GGGAGUUCUACAGUCCGACGAUCAGCCAAAUGCAACGUAUCCAGGAGCCUGGGACAAAGUAUUCAUUUUCAUUCCAUAACUACUGUAUAUUUAACAACAAACUCAUUACAGAGAGAGAGUCUUCAUCCAAUUAGUCUUUUCAUCAACAGAGGAUUGAGCAUCA
B5: chr6:67234166:67234167:+_ENSMUSG00000036371_ENSMUST00000042990|mus_hu|FALSE|FALSE (ssRNA)
RNA: GGGAGUUCUACAGUCCGACGAUCUGAAGAAUGCAUAAUCUCUGAAAAUUAUGAAAACAUCCCUGCUACCAAUACAUUUCUAAAUACAAAACUGACUACCAUAUUUGUUACUUCUGUGUAGCGGGAGAAGUUCAUUUUUAAAACCAACAGAGGAUUGAGCAUCA
B6: 19470457_19479411_542_3pUTR_ENSMUSG00000028228_ENSMUST00000029885|mouse|control|control (ssRNA)
RNA: GGGAGUUCUACAGUCCGACGAUCGUAUGGAUCUGACUUCCCAAACAGAUCCUUAUUAUCCAGUUUUCUGGCUUCCAUUUCAAACAAUACCACUCUGUUAUCCUUUAUUUCUUCUGCUGAAAUCGUAAUACUCCCUUUCCCUGCCAACAGAGGAUUGAGCAUCA

The other results are listed elsewhere or left out.

In this assay the target is T1, UNK ZnF1-3 (human, UniProt Q9C0B0 31-174).
T1 sequence: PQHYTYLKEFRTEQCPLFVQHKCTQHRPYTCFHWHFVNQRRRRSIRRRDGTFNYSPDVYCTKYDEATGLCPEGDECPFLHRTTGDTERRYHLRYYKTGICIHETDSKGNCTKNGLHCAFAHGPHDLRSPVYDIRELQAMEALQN
The assay can be described thus: nsRBNS (natural sequence RNA bind-n-seq); RBNS binding buffer (assumed for nsRBNS): 25 mM Tris pH 7.5, 150 mM KCl, 3 mM MgCl2, 0.01% Triton X-100, 500 ug/ml BSA, 20 U/ml SUPERase-In, 4 C; UNK is unkempt and MSI1 is Musashi-1; names of the RNAs are library labels; protein concentration not given here; high values mean tight binding.
Take B1: the binding signal was 0.937 enrichment R. Under B2 stands 1.93 enrichment R; under B3, 0.801 enrichment R. For B4 the value was 0.914 enrichment R; for B5, 1.13 enrichment R. For B6 the value was 0.598 enrichment R.
